Tests used:
HA-tagged ALK1 = HA-tagged ALK1 (UniProt P37023 22-503); assay: patch/FRAP
[1] = molecular target: HA-tagged type II TGF-β receptor (TβRII) (human, UniProt P37173 23-567); assay: patch/FRAP
Chain of UniProt P37173 (P37173 23-567): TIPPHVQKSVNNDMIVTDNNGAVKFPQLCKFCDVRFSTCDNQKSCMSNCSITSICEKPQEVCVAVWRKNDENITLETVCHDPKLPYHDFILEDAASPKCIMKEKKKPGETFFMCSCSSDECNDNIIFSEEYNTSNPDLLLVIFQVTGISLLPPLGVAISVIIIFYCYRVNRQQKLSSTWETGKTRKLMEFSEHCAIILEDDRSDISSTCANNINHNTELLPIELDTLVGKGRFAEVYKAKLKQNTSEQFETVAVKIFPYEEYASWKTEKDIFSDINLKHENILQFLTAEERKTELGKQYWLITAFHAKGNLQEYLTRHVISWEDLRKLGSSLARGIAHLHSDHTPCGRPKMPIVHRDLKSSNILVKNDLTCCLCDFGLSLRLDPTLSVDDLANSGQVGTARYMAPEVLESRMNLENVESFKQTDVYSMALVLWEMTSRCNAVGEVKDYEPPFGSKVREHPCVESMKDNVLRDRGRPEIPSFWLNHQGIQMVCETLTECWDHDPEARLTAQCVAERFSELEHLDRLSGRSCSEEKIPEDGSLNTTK

Chain of HA-tagged ALK1 (P37023 22-503): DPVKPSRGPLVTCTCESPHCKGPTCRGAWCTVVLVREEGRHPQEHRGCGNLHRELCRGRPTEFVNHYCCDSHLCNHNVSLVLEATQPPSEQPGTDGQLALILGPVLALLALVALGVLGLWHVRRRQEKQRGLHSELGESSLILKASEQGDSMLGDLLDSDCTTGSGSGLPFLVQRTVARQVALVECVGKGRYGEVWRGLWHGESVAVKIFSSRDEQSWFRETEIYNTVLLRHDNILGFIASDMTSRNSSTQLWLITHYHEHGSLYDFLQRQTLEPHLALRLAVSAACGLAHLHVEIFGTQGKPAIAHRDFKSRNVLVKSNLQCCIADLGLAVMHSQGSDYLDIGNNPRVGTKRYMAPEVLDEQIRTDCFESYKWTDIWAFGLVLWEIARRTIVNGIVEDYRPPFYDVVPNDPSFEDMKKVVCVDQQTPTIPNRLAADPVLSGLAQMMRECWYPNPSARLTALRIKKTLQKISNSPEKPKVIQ

B1: myc-tagged ALK1 (receptor)
chain: not shown
HA-tagged ALK1
  percent in homodimers (ΔRf x 2): ~60%
  percent reduction in Rf (ΔRf): ~30%
[1]
  percent reduction in Rf (ΔRf): ~30%
